The text below walks through data of the antibiotic and cytotoxicity screens of Wong et al. (2023).

Experiment [1] concerns HSkMC (human skeletal muscle cells). Kind of experiment: cytotoxicity call (relative viability < 0.9). Conditions: 10 µM.
Experiment [2] concerns S. aureus RN4220. Kind of experiment: growth inhibition call (relative growth <= 0.2). Conditions: 50 µM.

Some of the results follow.

`CS(=O)(=O)c1ccc(C(=O)C2C(=O)CCCC2=O)c([N+](=O)[O-])c1`: the cytotoxicity call in experiment [1] was “inactive”. Moreover, in experiment [2], the growth inhibition call is “inactive”.
Regarding `COC(=O)[C@@]1(Cc2ccccc2N=[N+]=[N-])N=C(c2ccc(OCCCO)cc2)O[C@H]1c1ccccc1CN=[N+]=[N-]`, in experiment [1], the cytotoxicity call is “inactive”. The growth inhibition call in experiment [2] is “inactive”.
With `Cn1ccnc1N1CCNCC1`, the cytotoxicity call in experiment [1] was “inactive”. Also, the growth inhibition call in experiment [2] is “inactive”.
In the case of `COC(=O)[C@@]1(Cc2ccccc2CN=[N+]=[N-])N=C(c2ccc(OCCCO)cc2)O[C@H]1c1ccccc1CN=[N+]=[N-]`, the cytotoxicity call in experiment [1] was “inactive”. In experiment [2], the growth inhibition call is “inactive”.
For `CC(=O)OC1CC(OC(C)=O)C2(C)C(CC(OC(C)=O)C3(C)C2CCC2(C)C(c4ccoc4)C(=O)C4OC423)C1(C)C` (stereo not given), in experiment [1], the cytotoxicity call is “inactive”. In experiment [2], the growth inhibition call is “inactive”.
Consider `CC(N)C(O)c1ccc(O)c(O)c1` (stereo not given), for which the cytotoxicity call in experiment [1] was “inactive”. In addition, the growth inhibition call in experiment [2] is “inactive”.
In the case of `C1CNC[C@@H](N2CCCC2)C1`, in experiment [1], the cytotoxicity call is “inactive”. In experiment [2], the growth inhibition call is “inactive”.
On to `CNc1ccc(C(=O)C[C@@H](O)CC[C@@H](C)[C@H]2OC(=O)C[C@@H](O)CC(=O)C[C@@H](O)C[C@@H](O)C[C@@H](O)C[C@@H](O)C[C@@]3(O)C[C@@H](O)[C@H](C(=O)OC)[C@@H](C[C@@H](O[C@@H]4O[C@H](C)[C@@H](O)[C@H](N)[C@@H]4O)\C=C/C=C\C=C/C=C\C=C/C=C\C=C/[C@@H]2C)O3)cc1`, for which the cytotoxicity call in experiment [1] was “inactive”. The growth inhibition call in experiment [2] is “inactive”.
With `CCC1(O)CC(O)c2c(cc3c(c2O)C(=O)c2c(O)ccc(O)c2C3=O)C1C(=O)OC` (stereo not given), in experiment [1], the cytotoxicity call is “inactive”. For the same compound, the growth inhibition call in experiment [2] was “inactive”.
With `Cc1cccc(Cc2cnc[nH]2)c1C`, in experiment [1], the cytotoxicity call is “inactive”. For the same compound, the growth inhibition call in experiment [2] was “inactive”.
For the compound `C[C@@H](N)Cc1ccc2occc2c1`, in experiment [1], the cytotoxicity call is “inactive”. For the same compound, the growth inhibition call in experiment [2] is “inactive”.
As to `OCC(Br)(Br)Br`, in experiment [1], the cytotoxicity call was “inactive”. Besides, the growth inhibition call in experiment [2] is “inactive”.
`CO/C1=C\C(C)=C\[C@@H](C)[C@@H](O)[C@@H](C)C/C(C)=C/C=C/[C@H](OC)[C@@H]([C@@H](C)[C@@H](O)[C@H](C)C(=O)/C=C/[C@H](C)[C@H](O)C(C)C)OC1=O`: the cytotoxicity call in experiment [1] was “inactive”. The growth inhibition call in experiment [2] is “inactive”.
With `O=C1CC(=O)N(Cc2ccccc2)C(=O)N1`, the cytotoxicity call in experiment [1] was “inactive”. Moreover, the growth inhibition call in experiment [2] was “inactive”.
As for `N[C@@H](CO)Cc1ccccc1`, the cytotoxicity call in experiment [1] is “inactive”. In addition, in experiment [2], the growth inhibition call is “inactive”.
In the case of `C[C@@H]1CN([C@@H](C)CO)C(=O)CCCn2cc(nn2)CO[C@H]1CN(C)C(=O)Oc1ccc2ccccc2c1`, in experiment [1], the cytotoxicity call is “inactive”. The growth inhibition call in experiment [2] is “inactive”.
Consider `CNC(=O)[C@H]1C[C@H]2CN(CC3CC3)C[C@H]1O2`, for which the cytotoxicity call in experiment [1] is “inactive”. For the same compound, the growth inhibition call in experiment [2] was “inactive”.
Take `CC(C)C[C@@H]1C(=O)N2CCC[C@@H]2[C@]2(O)O[C@@](NC(=O)[C@@H]3C=C4c5cccc6[nH]c(Br)c(c56)C[C@@H]4N(C)C3)(C(C)C)C(=O)N12`: the cytotoxicity call in experiment [1] is “inactive”. Also, in experiment [2], the growth inhibition call is “inactive”.
Regarding `CCN1CCN(c2nc([N+](=O)[O-])nn2C)CC1`, the cytotoxicity call in experiment [1] was “inactive”. Moreover, the growth inhibition call in experiment [2] is “inactive”.
On to `CCC(c1cccc(O)c1)C(C)CN(C)C.Cl` (stereo not given), for which, in experiment [1], the cytotoxicity call was “inactive”. Further, in experiment [2], the growth inhibition call was “inactive”.
As for `NCC[C@H](NC(=O)[C@@H](N)CCCNC(N)=N[N+](=O)[O-])C(N)=O.O=CC(F)(F)F`, in experiment [1], the cytotoxicity call was “inactive”. The growth inhibition call in experiment [2] is “inactive”.
On to `OC[C@H]1O[C@@H](Oc2ccc(/C=C/c3cc(O)cc(O)c3)cc2O)[C@H](O)[C@@H](O)[C@@H]1O`, for which, in experiment [1], the cytotoxicity call is “inactive”. Moreover, the growth inhibition call in experiment [2] was “inactive”.
Take `COc1cc2c(c(OC)c1OC)-c1ccc(O)c(=O)cc1C(NC(C)=O)CC2` (stereo not given): in experiment [1], the cytotoxicity call was “inactive”. For the same compound, the growth inhibition call in experiment [2] was “inactive”.
As for `C[As](C)SC[C@H](NC(=O)CC[C@H](N)C(=O)O)C(=O)NCC(=O)O`, the cytotoxicity call in experiment [1] is “inactive”. The growth inhibition call in experiment [2] is “inactive”.
For the compound `Cc1cccc(Cc2c[nH]cn2)c1C.Cl`, the cytotoxicity call in experiment [1] was “inactive”. The growth inhibition call in experiment [2] is “inactive”.
In the case of `Cc1nc(N)sc1CCN`, in experiment [1], the cytotoxicity call was “inactive”. In experiment [2], the growth inhibition call is “inactive”.
As to `OCC[N+]12CN3CN(CN(C3)C1)C2`, the cytotoxicity call in experiment [1] is “inactive”. The growth inhibition call in experiment [2] is “inactive”.
As to `Cc1cc2c(C(C)C)c(O)c(O)c(C=O)c2c(O)c1-c1c(C)cc2c(C(C)C)c(O)c(O)c(C=O)c2c1O`, the cytotoxicity call in experiment [1] was “inactive”. Further, the growth inhibition call in experiment [2] was “inactive”.
`CN1CCN(c2ccccc2CN)CC1`: in experiment [1], the cytotoxicity call was “inactive”. In addition, the growth inhibition call in experiment [2] was “inactive”.
For the compound `COCCN1[C@@H]2CC[C@H]1CN(c1ncccn1)C2`, in experiment [1], the cytotoxicity call is “inactive”. Further, in experiment [2], the growth inhibition call is “inactive”.
Regarding `Oc1ccccc1-c1ccccc1`, the cytotoxicity call in experiment [1] is “inactive”. Besides, the growth inhibition call in experiment [2] was “inactive”.
Turning to `Cc1ccc(C[C@H]2CCCN2)cc1C`, in experiment [1], the cytotoxicity call was “inactive”. Further, the growth inhibition call in experiment [2] is “inactive”.
As for `C=C[C@H]1CN2CC[C@@H]1C[C@@H]2CO`, the cytotoxicity call in experiment [1] was “inactive”. Also, the growth inhibition call in experiment [2] was “inactive”.
Turning to `NC1(Cc2ccc(Cl)cc2)CC1`, in experiment [1], the cytotoxicity call was “inactive”. Besides, the growth inhibition call in experiment [2] was “inactive”.
With `CN(C)[C@@H]1C(=O)C(C(N)=O)=C(O)[C@@]2(O)C(O)=C3C(=O)c4c(O)cccc4[C@](C)(O)[C@H]3C[C@@H]12`, in experiment [1], the cytotoxicity call is “inactive”. For the same compound, in experiment [2], the growth inhibition call is “active”.
On the same counts, the results for `c1cc2c(c(N3CCNCC3)c1)OCCO2` are “inactive” and “inactive”.
On the same counts, the results for `NCCc1cc(O)c(O)cc1O` are “inactive” and “inactive”.
As for `CC[C@@H](CN)c1ccccc1`, the cytotoxicity call in experiment [1] was “inactive”. In addition, the growth inhibition call in experiment [2] is “inactive”.
In the case of `CN1C[C@@H]2CNC[C@@H]2C1=O`, the cytotoxicity call in experiment [1] was “inactive”. Besides, the growth inhibition call in experiment [2] was “inactive”.
In the case of `CC(C)NC(=O)[C@H]1CCS(=O)(=O)[C@H]2CNC[C@@H]12`, the cytotoxicity call in experiment [1] was “inactive”. Moreover, the growth inhibition call in experiment [2] is “inactive”.
Turning to `CC(C)(C)[C@@]1(O)C[C@H]2OC(=O)C[C@]23C(=O)O[C@H]2OC(=O)[C@@H](O)[C@]231`, in experiment [1], the cytotoxicity call was “inactive”. In addition, the growth inhibition call in experiment [2] is “inactive”.
Take `COc1cccc(C2(O)CCCCC2CN(C)C)c1.Cl` (stereo not given): the cytotoxicity call in experiment [1] is “inactive”. Also, in experiment [2], the growth inhibition call is “inactive”.
Turning to `O=C1NC2(CCNCC2)C[C@@H]1c1ccncc1`, the cytotoxicity call in experiment [1] was “inactive”. Besides, the growth inhibition call in experiment [2] is “inactive”.
In the case of `CC(=O)Nc1ccc(CCN)cc1`, the cytotoxicity call in experiment [1] is “inactive”. Besides, in experiment [2], the growth inhibition call was “inactive”.
On to `O=C(O)Cc1cnc[nH]1`, for which the cytotoxicity call in experiment [1] is “inactive”. In addition, in experiment [2], the growth inhibition call was “inactive”.
For `Cl.N=C(N)NN`, the cytotoxicity call in experiment [1] is “inactive”. In experiment [2], the growth inhibition call was “inactive”.
Consider `[NH2][Pt]1([NH2])[O]C(=O)C2(CCC2)C(=O)[O]1`, for which the cytotoxicity call in experiment [1] is “inactive”. The growth inhibition call in experiment [2] was “inactive”.
As to `N[C@@]1(C(=O)O)CC[C@H](C(=O)O)C1.N[C@]1(C(=O)O)CC[C@@H](C(=O)O)C1`, the cytotoxicity call in experiment [1] was “inactive”. Also, in experiment [2], the growth inhibition call was “inactive”.
As to `O=C(O)CF.[NaH]`, in experiment [1], the cytotoxicity call is “inactive”. Besides, in experiment [2], the growth inhibition call was “inactive”.
For `CCC(CO)NC(=O)C1C=C2c3cccc4c3c(cn4C)CC2N(C)C1.O=C(O)C=CC(=O)O` (stereo not given), the cytotoxicity call in experiment [1] is “inactive”. Besides, the growth inhibition call in experiment [2] is “inactive”.
